This is one part of the list. These are noisy estimates, calculated here from bound and input reads.

This assay has as its target T1, Pho4 (S. cerevisiae) (UniProt P07270).
T1 sequence: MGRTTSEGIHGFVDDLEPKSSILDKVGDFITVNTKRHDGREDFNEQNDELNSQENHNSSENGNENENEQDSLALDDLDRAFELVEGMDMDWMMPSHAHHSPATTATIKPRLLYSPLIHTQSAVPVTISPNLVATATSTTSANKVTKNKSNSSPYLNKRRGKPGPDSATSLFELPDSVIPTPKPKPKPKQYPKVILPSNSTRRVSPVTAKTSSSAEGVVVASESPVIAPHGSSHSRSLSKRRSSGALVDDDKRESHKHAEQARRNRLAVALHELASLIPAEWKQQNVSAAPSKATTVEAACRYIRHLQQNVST
Description: relative binding free energy (BET-seq); higher = weaker binding. As to conditions: reference: library average.
Take TTGGCCACGTGTAAGG: the “relative binding free energy” value was 0.13 kcal/mol.
Turning to GTAATCACGTGTTTAG, the “relative binding free energy” value was determined as 0.15 kcal/mol.
For the sequence TCGTGCACGTGGGGCG, the “relative binding free energy” value is -0.16 kcal/mol.
For AGTTTCACGTGTTGAC the value was 0.22 kcal/mol; for TCGGACACGTGTTGTG, 0.06 kcal/mol; for GATGTCACGTGGTAGG, 0.14 kcal/mol.
For GAGGACACGTGATTGG the value was 0.34 kcal/mol; for CGGCTCACGTGGGGAG, 0.1 kcal/mol; for GAGTGCACGTGTTCGT, -0.16 kcal/mol.
Next, TATGACACGTGGGGAA: -0.17 kcal/mol; GTTCACACGTGGGAGG: 0.09 kcal/mol; CTTTTCACGTGGGTAT: 0.15 kcal/mol.
In the case of TGGGCCACGTGGTATG, the “relative binding free energy” value was -0.15 kcal/mol.
For AGGACCACGTGGGGGT the value was -0.3 kcal/mol.
For the sequence GCTTGCACGTGGGAGG, the “relative binding free energy” value is -0.1 kcal/mol.
As for TAGTGCACGTGATTCG, the “relative binding free energy” value worked out at 0.04 kcal/mol.
Next, TGTGACACGTGGCGGA: 0.08 kcal/mol; TTTGTCACGTGATCGG: 0.24 kcal/mol.
Take GTGGTCACGTGCGTTG: the “relative binding free energy” value is -0.01 kcal/mol.
Next, ACATGCACGTGAGGTT: 0.03 kcal/mol.
For CATAACACGTGGGGGA the value was -0.12 kcal/mol.
Next, GGTTGCACGTGTAGGT: 0.12 kcal/mol; TTAGTCACGTGTAGTC: 0.24 kcal/mol.
As to GGAAGCACGTGTCTGG, the “relative binding free energy” value is 0.02 kcal/mol.
Next, ACGGTCACGTGGTATT: 0.01 kcal/mol.
Next, TAGAGCACGTGTTAAG: -0.17 kcal/mol; ATTTGCACGTGCGTCT: -0.07 kcal/mol.
Take TAAGGCACGTGCGGGA: the “relative binding free energy” value is -0.28 kcal/mol.
Take TTTAGCACGTGGAAGT: the “relative binding free energy” value was 0.04 kcal/mol.
With GTGCGCACGTGGAGCT, the “relative binding free energy” value amounted to 0.06 kcal/mol.
Consider GCCGTCACGTGTTAGG, for which the “relative binding free energy” value worked out at 0.3 kcal/mol.
For AGGGTCACGTGAATGT the value was 0.32 kcal/mol; for GTGGACACGTGTGGTC, 0.07 kcal/mol.
With TATTCCACGTGGTTGG, the “relative binding free energy” value was found to be 0.2 kcal/mol.
Next, ATTGGCACGTGTCGGT: -0.12 kcal/mol; GTAGTCACGTGATATA: 0.29 kcal/mol.
On to TGAGGCACGTGGTAAT, for which the “relative binding free energy” value was -0.15 kcal/mol.
Next, TGCAGCACGTGGGAGT: -0.14 kcal/mol; TAGTGCACGTGGGGGG: -0.16 kcal/mol; TCTGTCACGTGTTGTG: 0.06 kcal/mol.
Next, GTACTCACGTGGTGTC: 0.2 kcal/mol; ATGAGCACGTGGTGGG: -0.15 kcal/mol.
In the case of GGGGCCACGTGGGTGA, the “relative binding free energy” value is -0.13 kcal/mol.
For the sequence TGGGTCACGTGCGAAG, the “relative binding free energy” value stood at 0.16 kcal/mol.
For TTGAACACGTGTGATG the value was 0.07 kcal/mol.
As for AAGTTCACGTGGTGGT, the “relative binding free energy” value is 0.36 kcal/mol.
For TTTTTCACGTGAGGGA the value was 0.4 kcal/mol; for GTTTGCACGTGGTATT, 0.04 kcal/mol.
Take AGGTTCACGTGTTAAT: the “relative binding free energy” value was found to be 0.24 kcal/mol.
Consider ATATTCACGTGATTTG, for which the “relative binding free energy” value is 0.35 kcal/mol.
For the sequence GGTGTCACGTGTGCTG, the “relative binding free energy” value was 0.06 kcal/mol.
As to GAATTCACGTGTAAGT, the “relative binding free energy” value is 0.4 kcal/mol.
For GAATACACGTGGGGTA the value was -0.19 kcal/mol; for TGTGGCACGTGAATTC, 0.12 kcal/mol.
Regarding GGATGCACGTGCGAAG, the “relative binding free energy” value worked out at 0.15 kcal/mol.
For GGCGTCACGTGGATTT, the “relative binding free energy” value was 0.26 kcal/mol.
For AGTTCCACGTGCTTGG the value was 0.18 kcal/mol.
For the sequence GATTTCACGTGGTTCA, the “relative binding free energy” value was 0.32 kcal/mol.
Take TAGTTCACGTGTATCT: the “relative binding free energy” value was found to be 0.24 kcal/mol.
In the case of TTGCGCACGTGCCGGG, the “relative binding free energy” value was -0.27 kcal/mol.
For GTTGGCACGTGGCATG the value was -0.13 kcal/mol; for TCTTGCACGTGGGGGG, -0.09 kcal/mol.
In the case of GAGGACACGTGGTTAA, the “relative binding free energy” value amounted to 0.11 kcal/mol.
Next, GGGGACACGTGGCAGA: -0.03 kcal/mol.
Next, TGTGTCACGTGTGCTA: 0.15 kcal/mol; TAGCACACGTGGGTGA: -0.09 kcal/mol.
Next, TATGTCACGTGTTAGC: 0.11 kcal/mol; TTTTACACGTGTGCAA: 0.06 kcal/mol; GACGTCACGTGGGGGT: 0.01 kcal/mol.
As to TGTTGCACGTGTATGG, the “relative binding free energy” value is 0.08 kcal/mol.
With GGGGTCACGTGTCATT, the “relative binding free energy” value stood at 0.11 kcal/mol.
For GTTTACACGTGGCTGA the value was 0.09 kcal/mol.
In the case of CAGGTCACGTGGAGGA, the “relative binding free energy” value is 0.11 kcal/mol.
Next, GGATTCACGTGAGTAT: 0.38 kcal/mol.
For GAAGGCACGTGTGTCG the value was -0.12 kcal/mol; for GGGAGCACGTGTGAGT, -0.03 kcal/mol.
For GGGTGCACGTGGTTAT, the “relative binding free energy” value was -0.06 kcal/mol.
Next, ATTTTCACGTGATGTA: 0.4 kcal/mol; GGTGGCACGTGGCTAA: -0.25 kcal/mol.
For the sequence ATGTACACGTGTGCTT, the “relative binding free energy” value was 0.04 kcal/mol.
For TAGTGCACGTGGGCTG the value was -0.13 kcal/mol; for ATGAGCACGTGTGGAT, 0.05 kcal/mol.
AGACTCACGTGGTGGT: the “relative binding free energy” value came to 0.03 kcal/mol.
For GTTGTCACGTGGAAGA the value was 0.06 kcal/mol.
For the sequence GTTCGCACGTGGGGAT, the “relative binding free energy” value is -0.06 kcal/mol.
For TTAAGCACGTGTTCAG, the “relative binding free energy” value amounted to 0.02 kcal/mol.
For the sequence TTTGGCACGTGGCGGT, the “relative binding free energy” value is -0.28 kcal/mol.
For ATTTACACGTGGTGTA the value was 0.08 kcal/mol.
With TACGGCACGTGTCGTA, the “relative binding free energy” value came out at 0.03 kcal/mol.
For GGGGACACGTGGTGCG the value was -0.03 kcal/mol.
For the sequence GGGGGCACGTGGCCCG, the “relative binding free energy” value was -0.21 kcal/mol.
Next, TGGGCCACGTGTCTGG: -0.07 kcal/mol.
For the sequence CGTATCACGTGATAGT, the “relative binding free energy” value turned out to be 0.22 kcal/mol.
For ATGGTCACGTGGCTAT the value was -0.11 kcal/mol.
On to TACTTCACGTGGTTAG, for which the “relative binding free energy” value was 0.08 kcal/mol.
For ACAGGCACGTGGATGG the value was -0.11 kcal/mol; for GAGCGCACGTGGTAGG, -0.06 kcal/mol; for CTACGCACGTGTTGGG, 0.07 kcal/mol.
Next, TGTCGCACGTGGGTGG: -0.23 kcal/mol; TGGTGCACGTGTCTCT: 0.01 kcal/mol.
AAGTGCACGTGTTGGT: the “relative binding free energy” value is -0.02 kcal/mol.
For GTGAGCACGTGGGTCG the value was -0.07 kcal/mol.
For ATTATCACGTGGGAAT the value was 0.14 kcal/mol; for GGTCGCACGTGTGAGG, 0 kcal/mol.
For TAATTCACGTGGGTGT the value was 0.2 kcal/mol.
For the sequence AGAGACACGTGGGGTG, the “relative binding free energy” value is -0.15 kcal/mol.
Take GGAGGCACGTGTGTCT: the “relative binding free energy” value was -0.13 kcal/mol.
Next, TGGGGCACGTGTTGAT: -0.14 kcal/mol.
For TTTAGCACGTGGGGCC the value was -0.02 kcal/mol; for GGTGCCACGTGTTGTT, -0.13 kcal/mol.
Regarding GTATGCACGTGGGCTG, the “relative binding free energy” value was -0.08 kcal/mol.
With GTAAGCACGTGCGGTA, the “relative binding free energy” value was -0.03 kcal/mol.
Turning to AGCGGCACGTGAAAGG, the “relative binding free energy” value came to 0.08 kcal/mol.
With AGATTCACGTGGGGGA, the “relative binding free energy” value is 0.12 kcal/mol.
Next, TATGACACGTGGTTTC: 0.15 kcal/mol.

The values above are taken from the BET-seq Pho4 binding data (Le et al. 2018).
